Values joined by “and” are separate entries in the source; they are usually repeats but may differ in a detail not shown here. Equal entries are not always repeated. This continues a long series; more values of the same kind are listed elsewhere. Toxic doses and inconclusive results are not listed. How the source made its calls: active means survival T/C of 150% or more; inactive means T/C below 125% in these data.
Tested on: CD2F1 mice, L1210 leukemia sc, survival T/C
Assay: NCI In Vivo Anticancer Drug Screen. Data for tumor model L1210 Leukemia (subcutaneous) in CD2F1 (CDF1) mice
Details: endpoint: median survival time, higher = longer survival
Experimental: The antitumor activity of compounds was measured in mice bearing transplantable tumors. Survival or tumor size were measured and the results are expressed as the measurement made in the treated group (T) divided by the measurement made in the vehicle treated control group (C). The tumor model used in this assay is L1210 Leukemia (subcutaneous) in CD2F1 (CDF1) mice

Measured: T/C

CN(Cc1cnc2nc(N)nc(N)c2n1)c1ccc(C(=O)N[C@@H](CCC(=O)O)C(=O)O)cc1
inactive: dose: 0.19 mg/kg/injection, schedule: Q01DX009 (ip), vehicle: sodium bicarbonate 97 % of control | dose: 8.0 mg/kg/injection, schedule: Q01DX009 (ip), vehicle: sodium bicarbonate 93 % of control
active: dose: 0.16 mg/kg/injection, schedule: Q#A X Z (sc), vehicle: other 218 % of control | dose: 0.27 mg/kg/injection, schedule: Q#A X Z (sc), vehicle: other 209 % of control | dose: 0.37 mg/kg/injection, schedule: Q01DX Z (sc), vehicle: other 247 % of control | dose: 0.39 mg/kg/injection, schedule: Q01DX Z (ip), vehicle: other 220 % of control | dose: 0.39 mg/kg/injection, schedule: Q#A X Z (sc), vehicle: other 205 % of control | dose: 0.42 mg/kg/injection, schedule: Q01DX Z (sc), vehicle: other 208 % of control | dose: 0.45 mg/kg/injection, schedule: Q01DX Z (sc), vehicle: other 204 % of control and 230 % of control and 231 % of control | dose: 0.46 mg/kg/injection, schedule: Q01DX Z (sc), vehicle: other 227 % of control and 228 % of control | dose: 0.5 mg/kg/injection, schedule: Q01DX009 (ip), vehicle: sodium bicarbonate 187 % of control | dose: 0.5 mg/kg/injection, schedule: Q01DX Z (sc), vehicle: other 238 % of control and 266 % of control | dose: 0.65 mg/kg/injection, schedule: Q01DX Z (ip), vehicle: other 215 % of control and 250 % of control | dose: 0.7 mg/kg/injection, schedule: Q01DX Z (sc), vehicle: other 200 % of control | dose: 0.74 mg/kg/injection, schedule: Q01DX Z (sc), vehicle: other 250 % of control | dose: 0.75 mg/kg/injection, schedule: Q01DX Z (ip), vehicle: sodium bicarbonate 260 % of control | dose: 0.75 mg/kg/injection, schedule: Q01DX Z (sc), vehicle: other 241 % of control and 250 % of control and 287 % of control | dose: 0.76 mg/kg/injection, schedule: Q01DX Z (oral), vehicle: other 186 % of control | dose: 0.76 mg/kg/injection, schedule: Q01DX Z (sc), vehicle: other 245 % of control and 272 % of control | dose: 1.0 mg/kg/injection, schedule: Q01DX Z (sc), vehicle: other 188 % of control and 233 % of control | dose: 1.08 mg/kg/injection, schedule: Q01DX Z (ip), vehicle: other 190 % of control and 210 % of control | dose: 1.08 mg/kg/injection, schedule: Q01DX Z (iv), vehicle: other 240 % of control | dose: 1.17 mg/kg/injection, schedule: Q01DX Z (sc), vehicle: other 220 % of control | dose: 1.24 mg/kg/injection, schedule: Q01DX Z (sc), vehicle: other 243 % of control | dose: 1.25 mg/kg/injection, schedule: Q01DX Z (sc), vehicle: other 220 % of control | dose: 1.26 mg/kg/injection, schedule: Q01DX Z (sc), vehicle: other 227 % of control | dose: 1.5 mg/kg/injection, schedule: Q01DX Z (ip), vehicle: sodium bicarbonate 195 % of control | dose: 1.5 mg/kg/injection, schedule: Q01DX Z (ip), vehicle: water 205 % of control | dose: 1.5 mg/kg/injection, schedule: Q01DX Z (sc), vehicle: other 206 % of control and 235 % of control | dose: 1.8 mg/kg/injection, schedule: Q01DX Z (ip), vehicle: other 185 % of control | dose: 1.8 mg/kg/injection, schedule: Q01DX Z (iv), vehicle: other 188 % of control and 235 % of control | dose: 2.1 mg/kg/injection, schedule: Q01DX Z (oral), vehicle: other 190 % of control | dose: 2.1 mg/kg/injection, schedule: Q01DX Z (sc), vehicle: other 186 % of control | dose: 2.17 mg/kg/injection, schedule: Q01DX Z (oral), vehicle: other 188 % of control | dose: 3.0 mg/kg/injection, schedule: Q01DX009 (sc), vehicle: sodium bicarbonate 186 % of control | dose: 3.5 mg/kg/injection, schedule: Q01DX Z (oral), vehicle: other 195 % of control | dose: 5.0 mg/kg/injection, schedule: Q01DX Z (oral), vehicle: other 190 % of control

Reference: PubChem BioAssay AID258 (DTP/NCI, 2004)
